# Assay results: PubChem BioAssay (NCATS)
# Several values for one entry are separate records, joined by “and”; a condition that tells them apart may be missing. Identical values can stand only once. Inconclusive means that the source gave no clear call. Such entries were picked first, then a sample of the others. For some of these results: Where the call is inconclusive, the potency comes from a doubtful curve fit. For some of these results: “Side channel” marks fits to a control or component signal instead of the main read-out. Activity calls are given as the source filed them. Unless noted, calls follow the shape of the dose curve; as a rule, active = well fitted curve in the direction sought with a large enough effect; inconclusive = small, poorly fitted or top-dose-only effect, or another doubt; inactive = no such curve, though single readings can be large; an effect the other way counts as inactive or inconclusive.
# Key:
# [1] = Cell Viability - LYMP2-017 (AID 972);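 also: potency is read from the fitted curve at half-maximal effect; cells exposed to compound for 24 hours at 37 °C; nearly all actives have a fitted effect of over 55% in size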
# How it was run: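 Cytotoxicity is scored as a concentration-dependent drop in cellular ATP in a human lymphoblastoid line after 24 hr treatment at 37 C. Values are AC50s from Hill-equation modelling.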
# [2] = Cell Viability - LYMP2-019 (AID 973);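 also: potency is read from the fitted curve at half-maximal effect; cells exposed to compound for 24 h at 37 °C; nearly all actives have a fitted effect of over 55% in size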
# How it was run: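 Cytotoxicity is scored as a concentration-dependent drop in cellular ATP after cells (2500/well) receive compound for 24 hr at 37 C. Tetraoctylammonium bromide serves as positive control.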
# [3] = target: Bile acid receptor (Homo sapiens) (UniProt Q96RI1); experiment: qHTS assay for small molecule agonists of farnesoid X receptor signaling (AID 588527; calls by dose curve; also: potency is read from the fitted curve at half-maximal effect); conditions: HEK293T FXR-UAS-bla, beta-lactamase ratio, 16 h; activation: stronger effect = higher value
# How it was run: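 Agonist-mode beta-lactamase reporter in GeneBLAzer FXR-UAS-bla HEK293T cells, titration up to 92 uM, 16 h exposure at 37 C, CCF4 fluorescence. Response scaled to DMSO (0%) and 100 uM chenodeoxycholic acid (100%), then Hill-fitted for EC50 and efficacy.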
# [4] = target: Estrogen receptor (Homo sapiens) (UniProt P03372); experiment: qHTS assay for small molecule agonists of estrogen receptor alpha signaling (AID 588514; calls by dose curve; also: potency is read from the fitted curve at half-maximal effect; nearly all actives have a fitted effect of over 70% in size); conditions: ER-alpha-UAS-bla HEK293, beta-lactamase ratio, 18 h; activation: at 76.8 µM (top of the series), percent of full estradiol response, vehicle zero unless noted
# How it was run: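 Efficacy is expressed against 20 nM 17-beta-estradiol (100%) and DMSO basal (0%); EC50 from Hill equation. Assay: beta-lactamase reporter in ER-alpha-UAS-bla HEK 293 cells, 18 h compound incubation, CCF4 detection.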
# [5] = target: Peroxisome proliferator-activated receptor delta (Homo sapiens) (UniProt Q03181); experiment: qHTS assay for small molecule agonists of peroxisome proliferator-activated receptor delta signaling (AID 588534; calls by dose curve; also: potency is read from the fitted curve at half-maximal effect); conditions: HEK293T PPARdelta-UAS-bla, beta-lactamase ratio, 18 h; activation: at 76.7 µM (top of the series)
# How it was run: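 Agonist-mode qHTS; reporter cells, 5 hrs 37 C pre-incubation; compound titration, 18 hrs 37 C; CCF4 dye, 2 hrs RT; fluorescence read. EC50/efficacy via Hill fit.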
# [6] = target: Vitamin D3 receptor (Homo sapiens) (UniProt P11473); experiment: qHTS assay for small molecule agonists of vitamin D receptor signaling (AID 588543; calls by dose curve; also: potency is read from the fitted curve at half-maximal effect); conditions: HEK293T VDR-UAS-bla, beta-lactamase ratio, 16 h; activation: at 76.8 µM (top of the series)
# How it was run: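 Agonist-mode beta-lactamase reporter: HEK293T VDR-UAS-bla cells in charcoal-stripped 2% FBS, compound series 16 h 37 C, CCF4 2 h RT. EC50 from Hill fit, scaled against DMSO and 50 nM calcitriol control.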
# [7] = qHTS assay for cell viability of the p53RE-bla HCT-116 cell line (AID 743292); also: % is scaled to controls: 0 for no effect and ±100 for the full control effect; nearly all actives have a fitted effect of over 55% in size
# How it was run: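 Compound-exposed HCT-116 (p53RE-bla) cells, 4,000 per well, were kept 16 h at 37 C following a 5 h preincubation. Cell number was estimated from total ATP by CellTiter-Glo luminescence read after 30 min at room temperature.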
# [8] = target: Voltage-gated inwardly rectifying potassium channel KCNH2 (Homo sapiens) (UniProt Q12809); experiment: qHTS Assay for Small Molecule Inhibitors of the Human hERG Channel Activity (AID 588834);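 also: potency is read from the fitted curve at half-maximal effect; lower thallium flux fluorescence means stronger hERG block; nearly all actives have a fitted effect of over 50% in size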
# How it was run: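 hERG block measured as reduced thallium-dye (FluxOR) fluorescence after stimulation buffer addition, read over 2 min. Cells were hERG-BacMam-transduced U2OS exposed to compound ~10 min […]; concentration-response fitted with Hill equation for AC50.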
# [9] = qHTS assay to identify small molecules that stimulate interleukin-8 (IL-8) secretion (AID 651758; active = well fitted activation curve with a large enough effect in the signal ratio; inconclusive = small, poorly fitted or top-dose-only effect, or effect the other way, or a change in a side signal; the % refers to the signal ratio; also: 0% is about no effect); conditions: HTRF ratio (665/615), at 92.2 µM (top of the series)
# How it was run: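 Compounds are added to THP-1 cells (2000 per well) and left 16 hrs at 37 C. A labeled anti-IL-8 antibody pair is then added, and IL-8 secretion is measured by time-resolved FRET after 1-3 hrs at room temperature.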
# [10] = qHTS Assay for Identifying Gametocytocidal Compounds (AID 743244);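 also: % is scaled to controls: 0 for no effect and ±100 for the full control effect; actives lower the fluorescent signal which means gametocytes are killed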; conditions: P. falciparum 3D7 stage III-V gametocytes, alamarBlue, 72 h; max response: stronger effect = lower value
# How it was run: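 Fluorescence at Ex 525/Em 598 nm, recorded 24 h after alamarBlue addition, reports residual metabolic activity of 3D7 gametocytes (stages III–V) following 72 h compound exposure at 37 °C, 5% CO2.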
# CP297 = experiment: qHTS profiling for inhibitors of Plasmodium falciparum proliferation (AID 504749);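 also: 0% = DMSO vehicle and full inhibition = artemisinin control; nearly all actives have a fitted effect of over 60% in size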; conditions: P. falciparum in erythrocytes, SYBR Green DNA, 72 h; series mostly up to 28.7 µM
# How it was run: (§1)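 Each compound contacts P. falciparum-infected red blood cells for 72 h at 37 C; lysis buffer (Tris, EDTA, saponin, Triton X, SYBR Green I) is added and fluorescence measured next morning; values normalized to controls.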
# [11] = target: Luciferin 4-monooxygenase (Photinus pyralis) (UniProt P08659); experiment: Biochemical firefly luciferase enzyme assay for NPC (AID 624030);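 also: purified P. pyralis luciferase at 10 nM with luciferin and ATP substrate; 0% = DMSO and -100% = full luciferase inhibition by PTC124 control; nearly all actives have a fitted effect of over 70% in size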
# How it was run: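 Purified P. pyralis luciferase at 10 nM in 50 mM Tris Acetate (final), luminescence read within 5 minutes of enzyme addition to compounds. Activity normalised to PTC124 versus DMSO; concentration-response curves classed by r2, magnitude and activity.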
# CP252 = experiment: qHTS profiling for inhibitors of Plasmodium falciparum proliferation (AID 504749);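 also: 0% = DMSO vehicle and full inhibition = artemisinin control; nearly all actives have a fitted effect of over 60% in size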; conditions: P. falciparum in erythrocytes, SYBR Green DNA, 72 h; series mostly up to 28.7 µM
# How it was run: as §1
# ICS = experiment: as above; conditions: P. falciparum in erythrocytes, SYBR Green DNA, 72 h; series mostly up to 28.7 µM
# How it was run: as §1
# [12] = S16 Schwann cell viability assay (CellTiter-Glo assay) (AID 624031);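 also: native untransfected S16 rat Schwann cells; cellular ATP luminescence as a viability measure; plate controls were DMSO-treated cells for no effect and cell-free wells for full effect; nearly all actives have a fitted effect of over 70% in size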
# How it was run: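 Following overnight culture in 10% FBS DMEM, parental S16 rat Schwann cells are dosed for 24 h at 37 °C. Viability is read as CellTiter-Glo luminescence and expressed as % activity relative to DMSO (0%) and no-cell wells.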
# HB3 = experiment: qHTS profiling for inhibitors of Plasmodium falciparum proliferation (AID 504749);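 also: 0% = DMSO vehicle and full inhibition = artemisinin control; nearly all actives have a fitted effect of over 60% in size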; conditions: P. falciparum in erythrocytes, SYBR Green DNA, 72 h; series mostly up to 28.7 µM
# How it was run: as §1
# Tags tell the direction and shape of the fitted curve or compound fluorescence and quenching.
# UniProt P03372, sequence (P03372 whole entry, looked up): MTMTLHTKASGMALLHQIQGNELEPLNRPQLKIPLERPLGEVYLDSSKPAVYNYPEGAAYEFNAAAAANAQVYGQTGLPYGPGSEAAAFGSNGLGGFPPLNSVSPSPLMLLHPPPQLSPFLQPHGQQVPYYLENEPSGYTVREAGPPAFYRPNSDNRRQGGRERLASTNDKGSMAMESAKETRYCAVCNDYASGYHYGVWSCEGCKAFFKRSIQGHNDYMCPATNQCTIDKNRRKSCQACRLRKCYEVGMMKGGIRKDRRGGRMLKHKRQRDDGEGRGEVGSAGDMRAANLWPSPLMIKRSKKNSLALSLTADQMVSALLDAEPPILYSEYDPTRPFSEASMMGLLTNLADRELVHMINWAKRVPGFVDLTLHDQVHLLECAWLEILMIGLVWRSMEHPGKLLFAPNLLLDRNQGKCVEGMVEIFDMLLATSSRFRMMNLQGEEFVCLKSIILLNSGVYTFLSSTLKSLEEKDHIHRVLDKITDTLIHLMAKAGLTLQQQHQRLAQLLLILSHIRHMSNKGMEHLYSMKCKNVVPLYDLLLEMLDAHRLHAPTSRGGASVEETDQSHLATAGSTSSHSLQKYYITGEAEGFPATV
# UniProt Q03181, sequence (Q03181 whole entry, looked up): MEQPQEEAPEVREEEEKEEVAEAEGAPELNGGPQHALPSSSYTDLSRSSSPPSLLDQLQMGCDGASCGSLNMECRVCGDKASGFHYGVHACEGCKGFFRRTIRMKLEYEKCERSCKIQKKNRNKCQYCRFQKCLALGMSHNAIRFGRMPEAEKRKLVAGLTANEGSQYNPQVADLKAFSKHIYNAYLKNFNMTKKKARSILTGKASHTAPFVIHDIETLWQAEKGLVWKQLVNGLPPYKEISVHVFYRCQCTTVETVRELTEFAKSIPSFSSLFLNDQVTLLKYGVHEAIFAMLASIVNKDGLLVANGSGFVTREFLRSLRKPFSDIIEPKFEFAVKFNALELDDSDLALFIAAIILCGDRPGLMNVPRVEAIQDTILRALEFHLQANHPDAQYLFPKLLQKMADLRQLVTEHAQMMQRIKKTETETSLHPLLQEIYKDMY
# UniProt P08659, sequence (P08659 whole entry, looked up): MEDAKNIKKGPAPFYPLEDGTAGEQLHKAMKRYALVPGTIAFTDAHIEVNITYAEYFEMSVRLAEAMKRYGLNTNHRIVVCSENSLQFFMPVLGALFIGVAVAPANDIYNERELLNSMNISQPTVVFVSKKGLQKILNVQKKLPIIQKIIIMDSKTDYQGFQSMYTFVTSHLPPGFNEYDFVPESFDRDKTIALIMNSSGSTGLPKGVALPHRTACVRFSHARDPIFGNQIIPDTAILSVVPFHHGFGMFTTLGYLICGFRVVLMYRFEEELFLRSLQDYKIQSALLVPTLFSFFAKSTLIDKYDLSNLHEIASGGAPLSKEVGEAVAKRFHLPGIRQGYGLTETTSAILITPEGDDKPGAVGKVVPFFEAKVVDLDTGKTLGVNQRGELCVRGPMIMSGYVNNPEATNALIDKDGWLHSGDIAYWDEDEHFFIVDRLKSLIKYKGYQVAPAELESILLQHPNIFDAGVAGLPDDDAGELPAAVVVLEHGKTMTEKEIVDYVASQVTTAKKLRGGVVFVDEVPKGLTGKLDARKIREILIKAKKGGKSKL
# UniProt Q12809, sequence (Q12809 whole entry, looked up): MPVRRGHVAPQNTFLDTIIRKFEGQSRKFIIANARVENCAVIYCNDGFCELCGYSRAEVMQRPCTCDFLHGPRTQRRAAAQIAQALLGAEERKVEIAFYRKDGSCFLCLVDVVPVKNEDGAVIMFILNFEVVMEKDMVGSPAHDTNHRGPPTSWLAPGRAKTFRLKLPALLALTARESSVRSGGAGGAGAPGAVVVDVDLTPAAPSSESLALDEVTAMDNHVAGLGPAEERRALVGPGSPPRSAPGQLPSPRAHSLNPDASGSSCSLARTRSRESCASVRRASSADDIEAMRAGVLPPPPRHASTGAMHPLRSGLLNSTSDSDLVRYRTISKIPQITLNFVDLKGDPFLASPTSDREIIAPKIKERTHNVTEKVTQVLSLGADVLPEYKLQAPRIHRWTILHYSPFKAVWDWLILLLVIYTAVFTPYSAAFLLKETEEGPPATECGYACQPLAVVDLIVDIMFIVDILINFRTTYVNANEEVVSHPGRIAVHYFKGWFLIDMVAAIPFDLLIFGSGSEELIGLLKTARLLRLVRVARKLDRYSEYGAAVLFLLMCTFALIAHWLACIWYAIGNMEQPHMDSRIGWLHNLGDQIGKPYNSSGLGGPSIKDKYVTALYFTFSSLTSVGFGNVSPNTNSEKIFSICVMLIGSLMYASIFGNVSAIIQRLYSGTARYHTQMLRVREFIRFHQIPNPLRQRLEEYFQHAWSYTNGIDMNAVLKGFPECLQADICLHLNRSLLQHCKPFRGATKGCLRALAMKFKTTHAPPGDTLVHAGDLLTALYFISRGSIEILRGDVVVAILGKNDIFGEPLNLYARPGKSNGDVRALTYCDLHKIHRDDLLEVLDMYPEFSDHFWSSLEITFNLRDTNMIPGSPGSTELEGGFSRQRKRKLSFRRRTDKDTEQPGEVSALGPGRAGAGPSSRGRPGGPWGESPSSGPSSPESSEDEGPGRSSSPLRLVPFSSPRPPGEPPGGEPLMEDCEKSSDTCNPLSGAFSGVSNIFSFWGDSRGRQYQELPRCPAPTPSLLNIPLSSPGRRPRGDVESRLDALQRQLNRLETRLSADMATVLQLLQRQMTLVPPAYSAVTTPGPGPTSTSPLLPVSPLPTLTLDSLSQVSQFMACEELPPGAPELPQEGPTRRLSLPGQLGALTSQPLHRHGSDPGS
compound,measurement,setting,value
CN(C)c1ccc(N(C)C)cc1,Potency,[1],"inconclusive: 79.4 µM [cytotoxic, partial curve, poor fit]"
same,Potency,[2],"inconclusive: 50.1 µM [cytotoxic, partial curve, poor fit]"
same,Potency,[3],"inconclusive: 39.8 µM [side channel, rising, single point]"
c1ccc(Nc2ccc(Nc3ccccc3)cc2)cc1,Potency,[4],"inconclusive: 891 nM [activator, full curve]"
c1ccc2cc3c(cc2c1)-c1cccc2cccc-3c12,Potency,[4],"inconclusive: 7.08 µM [fluorescent, side channel, full curve] and inconclusive: 25.1 µM [fluorescent, side channel, partial curve]"
same,Potency,[3],active: 3.16 µM
same,Potency,[5],"inconclusive: 10 µM [fluorescent, side channel, partial curve] and inconclusive: 7.94 µM [fluorescent, side channel, full curve]"
same,Potency,[6],"inconclusive: 35.5 µM [fluorescent, side channel, partial curve] and inconclusive: 28.2 µM [fluorescent, side channel, partial curve, poor fit]"
same,Potency,[7],inactive
ClC(Cl)(Cl)Cl,Potency,[8],"inconclusive: 6.31 µM [inhibitor, partial curve, poor fit]"
same,activation,[9],inactive: -1.52%
same,max response,[10],inconclusive: -98.4% [inhibitor]
same,Potency,CP297,inactive
C=C1Nc2ccccc2C(=O)N1c1ccccc1C,Potency,[11],inactive
same,Potency,CP252,inactive
[S]=[Sb][S][Sb]=[S],Potency,[11],inactive
same,Potency,ICS,inactive
NCC[C@H](O)C(=O)N[C@H]1C[C@@H](N)[C@@H](O[C@H]2O[C@@H](CN)[C@@H](O)[C@@H](O)[C@@H]2N)[C@@H](O[C@H]2O[C@@H](CO)[C@@H](O)[C@@H]2O)[C@@H]1O,Potency,[12],inactive
same,Potency,HB3,inactive
